According to the supplement of paper PMC4604168 (melanoma cell lines):
The list shows a part of the results. Single values are uncertain, as repeats are few or missing.

Assays:
Assay in all cases: cell count relative to DMSO control; melanoma cells; higher = more viable cells
Settings in all cases: library dose: standard library concentration; 72 h
G361 = system: G361
IPC-298 = system: IPC-298
IST-MEL1 = system: IST-MEL1
LB2518-MEL = system: LB2518-MEL
LOXIMVI = system: LOXIMVI
MEL-HO = system: MEL-HO
MZ2-MEL = system: MZ2-MEL
MeWo = system: MeWo
RPMI7951 = system: RPMI7951
RVH-421 = system: RVH-421
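Further: cells treated in 1,536-well plates, then fixed and DAPI-stained, with nuclei counted from automated high-throughput microscope images.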

Row | Structure (SMILES) | cell count (G361) [%] | cell count (IPC-298) [%] | cell count (IST-MEL1) [%] | cell count (LB2518-MEL) [%] | cell count (LOXIMVI) [%] | cell count (MEL-HO) [%] | cell count (MZ2-MEL) [%] | cell count (MeWo) [%] | cell count (RPMI7951) [%] | cell count (RVH-421) [%]
1 | N.N.[Cl][Pt][Cl] [cisplatin] + Cn1c(Nc2ccc(C(F)(F)F)cc2)nc2cc(Oc3ccnc(-c4ncc(C(F)(F)F)[nH]4)c3)ccc21 [CHIR265] (first compound 8 µM, partner dose 0.4 µM) | 91 | 96.1 | 85.7 | 89 | 96.3 | 97.8 | 83.8 | 83.7 | 95.5 | 92.3
2 | Cn1cc(C2=C(c3cn(C4CCN(Cc5ccccn5)CC4)c4ccccc34)C(=O)NC2=O)c2ccccc21 [Enzastaurin] + O=C1NC(=O)/C(=C/c2ccc(-c3ccc(F)cc3O)o2)S1 [AS252424] (first compound 4 µM, partner dose 5 µM) | 79.8 | 84.7 | 81 | 56.6 | 70.5 | 81 | 94.1 | 81.6 | 48.8 | 70.5
3 | N.N.[Cl][Pt][Cl] [cisplatin] + C[As](C)SC[C@H](NC(=O)CC[C@H](N)C(=O)O)C(=O)NCC(=O)O [Darinaparsin] (first compound 8 µM, partner dose 2 µM) | 89.1 | 90.2 | 92.5 | 82.2 | 78.5 | 88.9 | 83.3 | 92.2 | 105 | 75.2
4 | N.N.[Cl][Pt][Cl] [cisplatin] + CNC(=O)c1cc(Oc2ccc(NC(=O)Nc3ccc(Cl)c(C(F)(F)F)c3)cc2)ccn1 [sorafenib] (first compound 8 µM, partner dose 2 µM) | 74.7 | 83.5 | 93.2 | 78.5 | 118 | 78.3 | 79.2 | 70.1 | 71.6 | 96.7
5 | C[C@]12O[C@H](C[C@]1(O)CO)n1c3ccccc3c3c4c(c5c6ccccc6n2c5c31)CNC4=O [Lestaurtinib] + COc1cc(N2CCC(N3CCN(C)CC3)CC2)ccc1Nc1ncc(Cl)c(Nc2ccccc2S(=O)(=O)C(C)C)n1 [NVP-TAE684] (first compound 0.02 µM, partner dose 0.4 µM) | 60.1 | 74.8 | 113 | 74.5 | 85.5 | 79.8 | 98.8 | 55.8 | 64.6 | 95.7
6 | Cn1cc(C2=C(c3cn(C4CCN(Cc5ccccn5)CC4)c4ccccc34)C(=O)NC2=O)c2ccccc21 [Enzastaurin] + CCCCCCCCc1ccc(CCC(N)(CO)CO)cc1 [fingolimod] (first compound 4 µM, partner dose 10 µM) | 1.28 | 30.4 | 5.03 | 0.358 | 18.4 | 1.01 | 56.3 | 19.1 | 1.92 | 10.5
7 | C[C@]12O[C@H](C[C@]1(O)CO)n1c3ccccc3c3c4c(c5c6ccccc6n2c5c31)CNC4=O [Lestaurtinib] + C/C(O)=C(\C#N)C(=O)Nc1cc(Br)ccc1Br [LFM-A13] (first compound 0.02 µM, partner dose 10 µM) | 89.3 | 54.5 | 92.1 | 62.4 | 91.2 | 86.4 | 81.9 | 71.1 | 74 | 99.8
8 | N.N.[Cl][Pt][Cl] [cisplatin] + Clc1ccc(Nc2nnc(Cc3ccncc3)c3ccccc23)cc1 [vatalanib] (first compound 8 µM, partner dose 10 µM) | 67.7 | 74.3 | 76 | 81.7 | 42.6 | 62.7 | 94.8 | 84.5 | 54.7 | 93.9
9 | Cn1cc(C2=C(c3cn(C4CCN(Cc5ccccn5)CC4)c4ccccc34)C(=O)NC2=O)c2ccccc21 [Enzastaurin] + CC1(C)NC(=O)N(c2ccc([N+](=O)[O-])c(C(F)(F)F)c2)C1=O [nilutamide] (first compound 4 µM, partner dose 5 µM) | 73.4 | 113 | 49.6 | 72.6 | 75.6 | 89.2 | 121 | 82.7 | 59.9 | 12
10 | Cn1cc(C2=C(c3cn(C4CCN(Cc5ccccn5)CC4)c4ccccc34)C(=O)NC2=O)c2ccccc21 [Enzastaurin] + CC(C)C[C@H](NC(=O)[C@H](Cc1ccccc1)NC(=O)c1cnccn1)B(O)O [Bortezomib] (first compound 4 µM, partner dose 0.005 µM) | 0.68 | 6.91 | 4.65 | 2.38 | 17.6 | 13.4 | 3.82 | 11.4 | 1.43 | 2.04
11 | N.N.[Cl][Pt][Cl] [cisplatin] + COc1cc(N2CCC(N3CCN(C)CC3)CC2)ccc1Nc1ncc(Cl)c(Nc2ccccc2S(=O)(=O)C(C)C)n1 [NVP-TAE684] (first compound 8 µM, partner dose 0.4 µM) | 87 | 101 | 109 | 97.3 | 76.6 | 101 | 122 | 76.1 | 79.8 | 66.3
